Biological target: HLA-A*0201 molecules on T2 cells (CEMX721.174.T2) (human)
Experiment: cell-based or functional assay

Binder | Relative competitor activity
SLLMWITQCFL [NY-ESO-1 157-167 peptide SLLMWITQCFL (SEQ ID NO: 1)] | 0.04 ratio to FluMA 58-66
QLSLLMWIT [NY-ESO-1 155-163 peptide QLSLLMWIT (SEQ ID NO: 3)] | 0.01 ratio to FluMA 58-66
